Measurements reported in paper PMC5758830.
These are yes or no findings as the source states them, for the method shown. For some of these results: In cells and extracts the contact can be indirect. Some entries that bind do so weakly or less than the wild type. For some of these results: Where a sequence is shown, tags or fusion partners need not be part of it. Blank lines part the entries; values can stand above or below the molecule they belong to.

Chains of the proteins cited; added tags and fusions are not shown. Lines headed by an entry give the natural chain unless they say otherwise; changes in a name come on top.
UniProt Q9H1Y0: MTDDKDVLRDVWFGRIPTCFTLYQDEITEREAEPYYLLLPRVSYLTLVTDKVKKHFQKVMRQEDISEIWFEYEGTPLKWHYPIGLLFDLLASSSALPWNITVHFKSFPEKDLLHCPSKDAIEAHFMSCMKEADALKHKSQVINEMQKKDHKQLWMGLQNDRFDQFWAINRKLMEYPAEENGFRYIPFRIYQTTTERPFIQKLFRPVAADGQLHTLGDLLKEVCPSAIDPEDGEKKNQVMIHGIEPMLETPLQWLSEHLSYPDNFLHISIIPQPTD
UniProt Q6AZ50: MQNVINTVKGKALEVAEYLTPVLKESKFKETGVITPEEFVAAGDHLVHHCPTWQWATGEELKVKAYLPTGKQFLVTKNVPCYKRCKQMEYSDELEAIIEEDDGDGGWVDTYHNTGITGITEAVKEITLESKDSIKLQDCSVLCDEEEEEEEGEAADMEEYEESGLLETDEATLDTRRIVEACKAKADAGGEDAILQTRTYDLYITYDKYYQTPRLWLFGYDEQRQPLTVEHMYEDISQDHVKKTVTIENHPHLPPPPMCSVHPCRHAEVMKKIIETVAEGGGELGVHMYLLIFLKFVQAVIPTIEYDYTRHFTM
UniProt O94817: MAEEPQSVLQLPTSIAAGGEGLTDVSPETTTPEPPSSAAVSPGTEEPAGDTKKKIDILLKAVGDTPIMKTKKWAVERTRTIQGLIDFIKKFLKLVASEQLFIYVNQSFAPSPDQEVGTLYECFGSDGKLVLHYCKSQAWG
UniProt Q9NT62: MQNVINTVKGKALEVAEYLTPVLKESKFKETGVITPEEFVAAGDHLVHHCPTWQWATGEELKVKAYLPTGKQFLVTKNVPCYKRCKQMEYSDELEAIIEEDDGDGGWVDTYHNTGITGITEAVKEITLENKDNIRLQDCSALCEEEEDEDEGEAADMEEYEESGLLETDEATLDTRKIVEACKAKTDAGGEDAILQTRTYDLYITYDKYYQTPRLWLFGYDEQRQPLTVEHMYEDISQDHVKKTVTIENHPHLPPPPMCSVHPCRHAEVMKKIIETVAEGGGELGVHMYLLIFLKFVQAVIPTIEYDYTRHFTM

Assays:
[1] = target: T1, Atg7 (rat (endogenous in aortic SMC)) (UniProt Q641Y5); assay: proximity ligation; Duolink In Situ kit, SMC untreated or in EBSS 1 h, or H2O2 in complete media; fixed, permeabilised, primary Atg3 and Atg7 antibodies; confocal microscopy
T1 sequence: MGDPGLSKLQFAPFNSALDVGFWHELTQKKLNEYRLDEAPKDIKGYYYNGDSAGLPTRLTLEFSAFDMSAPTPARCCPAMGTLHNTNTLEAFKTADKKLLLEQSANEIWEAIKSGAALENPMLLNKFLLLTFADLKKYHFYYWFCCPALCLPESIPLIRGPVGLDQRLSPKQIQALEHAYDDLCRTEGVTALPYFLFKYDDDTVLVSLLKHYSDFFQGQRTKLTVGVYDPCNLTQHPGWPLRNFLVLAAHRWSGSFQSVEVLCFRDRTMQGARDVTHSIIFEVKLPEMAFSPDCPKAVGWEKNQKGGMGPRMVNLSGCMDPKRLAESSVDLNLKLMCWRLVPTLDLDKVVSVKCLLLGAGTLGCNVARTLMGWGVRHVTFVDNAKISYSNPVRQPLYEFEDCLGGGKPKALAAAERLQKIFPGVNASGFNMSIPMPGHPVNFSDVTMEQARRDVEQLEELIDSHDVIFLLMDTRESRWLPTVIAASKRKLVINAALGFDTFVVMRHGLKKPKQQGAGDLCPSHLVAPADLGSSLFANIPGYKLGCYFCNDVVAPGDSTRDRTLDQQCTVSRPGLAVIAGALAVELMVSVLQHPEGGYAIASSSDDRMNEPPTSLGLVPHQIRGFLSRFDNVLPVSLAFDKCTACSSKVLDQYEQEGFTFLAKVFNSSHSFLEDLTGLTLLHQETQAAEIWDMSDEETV

[2] = target: T1, Atg7 (rat (endogenous in aortic SMC)); assay: non-reducing SDS-PAGE with immunoblot; rat aortic SMC (untransfected, siRNA-treated or transfected), fed, amino acid starved (EBSS 1 h) with or without H2O2, or oxLDL, lysed into sample buffer with maleimide; shows covalent complexes only; complexes tested with hydroxylamine and beta-mercaptoethanol
[3] = target: T1, Atg7 (rat (endogenous in aortic SMC)); assay: condition: only amino acid deprivation (EBSS) with 100 µM H2O2; proximity ligation; Duolink In Situ kit, SMC in EBSS with 100 µM H2O2 for 1 h; fixed, permeabilised, primary Atg3 and Atg7 antibodies; confocal microscopy
[4] = target: Atg5 (human (endogenous in HEK)) (UniProt Q9H1Y0); assay: non-reducing SDS-PAGE with immunoblot; HEK cells (untransfected or transfected), fed, amino acid starved (EBSS 1 h) with or without H2O2, lysed directly into SDS sample buffer with 100 mM maleimide; shows covalent complexes only; complexes tested with hydroxylamine and beta-mercaptoethanol
[5] = target: T2, wild-type Atg7 (transfected) (UniProt O95352); assay: non-reducing SDS-PAGE with immunoblot; rat aortic SMC (untransfected, siRNA-treated or transfected), fed, amino acid starved (EBSS 1 h) with or without H2O2, or oxLDL, lysed into sample buffer with maleimide; shows covalent complexes only; complexes tested with hydroxylamine and beta-mercaptoethanol
T2 sequence: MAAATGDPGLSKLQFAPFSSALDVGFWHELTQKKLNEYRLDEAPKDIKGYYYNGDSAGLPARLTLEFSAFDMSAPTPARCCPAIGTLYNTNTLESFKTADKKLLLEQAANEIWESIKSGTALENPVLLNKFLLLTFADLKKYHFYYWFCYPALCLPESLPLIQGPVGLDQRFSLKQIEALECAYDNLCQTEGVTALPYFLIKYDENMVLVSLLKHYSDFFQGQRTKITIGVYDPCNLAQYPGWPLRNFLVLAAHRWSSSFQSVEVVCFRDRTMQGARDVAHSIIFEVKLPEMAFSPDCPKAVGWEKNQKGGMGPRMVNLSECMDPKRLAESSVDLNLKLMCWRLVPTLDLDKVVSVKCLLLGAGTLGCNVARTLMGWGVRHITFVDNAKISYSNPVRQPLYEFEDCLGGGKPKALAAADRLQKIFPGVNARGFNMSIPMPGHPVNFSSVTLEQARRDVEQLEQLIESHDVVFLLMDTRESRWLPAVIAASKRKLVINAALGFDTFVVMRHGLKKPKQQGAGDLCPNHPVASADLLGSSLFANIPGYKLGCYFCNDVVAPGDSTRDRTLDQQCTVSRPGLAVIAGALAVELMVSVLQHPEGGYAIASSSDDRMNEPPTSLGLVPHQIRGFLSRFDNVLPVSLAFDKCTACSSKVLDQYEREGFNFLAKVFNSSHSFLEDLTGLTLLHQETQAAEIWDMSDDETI

[6] = target: T3, C572A Atg7 (UniProt O95352); assay: as above
T3 sequence: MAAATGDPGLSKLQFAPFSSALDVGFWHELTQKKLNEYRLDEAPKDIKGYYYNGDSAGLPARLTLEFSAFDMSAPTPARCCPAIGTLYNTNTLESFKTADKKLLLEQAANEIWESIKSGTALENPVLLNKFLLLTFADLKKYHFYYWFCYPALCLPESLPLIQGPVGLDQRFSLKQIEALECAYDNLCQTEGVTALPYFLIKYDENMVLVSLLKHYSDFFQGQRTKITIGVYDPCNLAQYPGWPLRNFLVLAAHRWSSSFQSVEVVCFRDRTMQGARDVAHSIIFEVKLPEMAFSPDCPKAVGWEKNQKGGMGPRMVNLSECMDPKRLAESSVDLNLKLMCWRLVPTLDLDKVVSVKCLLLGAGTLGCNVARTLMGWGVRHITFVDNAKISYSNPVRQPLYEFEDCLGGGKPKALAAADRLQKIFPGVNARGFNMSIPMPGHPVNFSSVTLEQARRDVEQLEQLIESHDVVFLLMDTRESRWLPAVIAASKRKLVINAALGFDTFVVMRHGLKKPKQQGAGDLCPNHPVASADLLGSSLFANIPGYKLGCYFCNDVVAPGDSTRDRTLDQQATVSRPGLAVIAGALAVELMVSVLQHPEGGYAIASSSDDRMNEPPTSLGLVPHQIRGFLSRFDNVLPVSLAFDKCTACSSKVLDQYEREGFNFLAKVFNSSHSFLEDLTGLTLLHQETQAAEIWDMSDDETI

[7] = target: T4, recombinant human His6-Atg7 (human), O95352; assay: non-reducing SDS-PAGE with Coomassie stain; in vitro lipidation reaction: 5 µM His-MAP1LC3B, 1 µM His6-Atg3 and His6-Atg7, 30 µM liposomes, 0.2 mM DTT, 10 mM MgCl2, 5 mM ATP, 50 mM Tris-HCl pH 7, 150 mM NaCl, 30 °C up to 60 min; stopped with sample buffer with 100 mM maleimide; shows covalent complexes only; both purified; conditions: remark: other sources report otherwise
T4 chain: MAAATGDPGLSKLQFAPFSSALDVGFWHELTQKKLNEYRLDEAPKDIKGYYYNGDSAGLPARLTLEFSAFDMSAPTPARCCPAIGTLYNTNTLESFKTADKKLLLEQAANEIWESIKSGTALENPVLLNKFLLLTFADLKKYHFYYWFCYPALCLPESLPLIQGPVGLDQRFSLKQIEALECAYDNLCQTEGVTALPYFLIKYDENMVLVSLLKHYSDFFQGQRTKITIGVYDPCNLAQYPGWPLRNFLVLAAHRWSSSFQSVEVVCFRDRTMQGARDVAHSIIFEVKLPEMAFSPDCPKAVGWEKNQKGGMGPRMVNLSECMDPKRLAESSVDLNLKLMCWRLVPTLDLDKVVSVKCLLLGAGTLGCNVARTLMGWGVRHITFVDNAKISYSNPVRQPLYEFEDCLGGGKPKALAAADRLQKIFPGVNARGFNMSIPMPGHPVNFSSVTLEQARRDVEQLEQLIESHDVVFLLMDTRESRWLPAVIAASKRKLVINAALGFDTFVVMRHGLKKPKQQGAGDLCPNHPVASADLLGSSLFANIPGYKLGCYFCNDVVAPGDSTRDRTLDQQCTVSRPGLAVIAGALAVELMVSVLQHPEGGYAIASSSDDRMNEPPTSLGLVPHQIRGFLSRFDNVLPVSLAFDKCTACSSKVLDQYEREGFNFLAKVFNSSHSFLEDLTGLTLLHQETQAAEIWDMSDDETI

Molecule: Atg3 (from UniProt Q6AZ50 1-314) (enzyme)
binding [1]: binds | binding [2]: binds | binding [3]: no binding

Molecule: Atg12 (from UniProt O94817 1-140)
binding [4]: binds

B1: recombinant human His6-Atg7, O95352 1-703 (enzyme)
chain: MAAATGDPGLSKLQFAPFSSALDVGFWHELTQKKLNEYRLDEAPKDIKGYYYNGDSAGLPARLTLEFSAFDMSAPTPARCCPAIGTLYNTNTLESFKTADKKLLLEQAANEIWESIKSGTALENPVLLNKFLLLTFADLKKYHFYYWFCYPALCLPESLPLIQGPVGLDQRFSLKQIEALECAYDNLCQTEGVTALPYFLIKYDENMVLVSLLKHYSDFFQGQRTKITIGVYDPCNLAQYPGWPLRNFLVLAAHRWSSSFQSVEVVCFRDRTMQGARDVAHSIIFEVKLPEMAFSPDCPKAVGWEKNQKGGMGPRMVNLSECMDPKRLAESSVDLNLKLMCWRLVPTLDLDKVVSVKCLLLGAGTLGCNVARTLMGWGVRHITFVDNAKISYSNPVRQPLYEFEDCLGGGKPKALAAADRLQKIFPGVNARGFNMSIPMPGHPVNFSSVTLEQARRDVEQLEQLIESHDVVFLLMDTRESRWLPAVIAASKRKLVINAALGFDTFVVMRHGLKKPKQQGAGDLCPNHPVASADLLGSSLFANIPGYKLGCYFCNDVVAPGDSTRDRTLDQQCTVSRPGLAVIAGALAVELMVSVLQHPEGGYAIASSSDDRMNEPPTSLGLVPHQIRGFLSRFDNVLPVSLAFDKCTACSSKVLDQYEREGFNFLAKVFNSSHSFLEDLTGLTLLHQETQAAEIWDMSDDETI
binding [7]: no binding

Continued, values first:

binding [5]: no binding
Molecule: C264A mCherryAtg3 (from UniProt Q9NT62 1-314) (enzyme)

binding [6]: no binding
Molecule: wild-type mCherry-Atg3 (from UniProt Q9NT62 1-314) (enzyme)
